Experimental data from PubChem BioAssay AID485281 (National Center for Advancing Translational Sciences (NCATS), 2010).
About 260 (0.074%) of roughly 350,000 compounds were called active. This list was built around the results that the source calls inconclusive (neither active nor inactive); the mix of calls is not that of the screen. Calls follow the shape of the dose curve; as a rule, active = well fitted inhibition curve with a large enough effect; inconclusive = small, poorly fitted or top-dose-only effect; inactive = no such curve, though single readings can be large or run the other way. A potency beside an inconclusive call is a rough fit, not a confirmed value.

target: Ferritin light chain (Equus caballus) (UniProt P02791); test: qHTS Assay for Identification of Novel General Anesthetics; conditions: apoferritin/1-aminoanthracene competitive binding, fluorescence; series mostly up to 77.5 µM; also: nearly all actives have a fitted effect of over 20% in size
Outline: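 Horse-spleen apoferritin (10 uM) was mixed with 50% saturated 1-aminoanthracene in PBS, exposed to compounds for 10 min at room temperature, and read for fluorescence (ex 380 nm, em 535 nm). Competitive displacement was fitted with a four-parameter Hill equation.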
Potency is read from the fitted curve at half-maximal effect; tags tell the direction and shape of the fitted curve.

Sequence of UniProt P02791 (P02791 whole entry, looked up): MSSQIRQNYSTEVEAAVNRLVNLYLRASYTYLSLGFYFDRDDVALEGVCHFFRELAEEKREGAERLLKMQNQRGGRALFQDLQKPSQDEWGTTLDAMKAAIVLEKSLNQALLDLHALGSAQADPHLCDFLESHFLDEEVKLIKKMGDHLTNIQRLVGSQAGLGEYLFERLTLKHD

Potency, inconclusive:
COc1ccc(Sc2nnc(Cc3ccccc3)c3ccccc23)cc1 5.01 µM [inhibitor, full curve, poor fit], CCOc1ccc(N2C(=O)c3cccnc3C2Nc2ccc(C)c(C)c2)cc1 (configuration not stated) 31.6 µM [inhibitor, single point], COc1ccccc1-c1ccc(=O)n(CC(=O)NCc2cccs2)n1 15.8 µM [inhibitor, partial curve], CC(=O)CC(=O)Nc1cccc2c1CCCC2 35.5 µM [inhibitor, partial curve], COc1cccc(-c2nc(SCc3cc(=O)c4cc(Cl)ccc4[nH]3)n[nH]2)c1 7.08 µM [inhibitor, full curve, poor fit], CCOC(=O)c1c(C)oc2c1c(C=NCCO)c(O)c1ccccc12 35.5 µM [inhibitor, single point], COc1cccc(-n2nnnc2SCC(=O)N2CCCc3ccccc32)c1 17.8 µM [inhibitor, partial curve], COc1ccc(C(=O)/C(=C/c2cccs2)c2nc3ccccc3o2)cc1 0.794 µM [inhibitor, full curve, poor fit], O=C(NC1CCCCCCC1)c1cccc(Cl)c1 56.2 µM [inhibitor, single point], O=C(COC(=O)C12CC3CC(CC(C3)C1)C2)Nc1ccccc1F 28.2 µM [inhibitor, partial curve], CS(=O)(=O)N1N=C(c2ccc(Cl)cc2)CC1c1cccs1 (configuration not stated) 20 µM [inhibitor, partial curve]

Potency, inactive:
Cc1c(C(=O)OCCOc2ccccc2)[nH]c2c1C(=O)CCC2, Cc1nc(N2CCN(c3ccccn3)CC2)c2c(C)c(C(=O)N3CCN(c4ccc(F)cc4)CC3)sc2n1, COc1ccc(N2CCN(C(=S)Nc3ccc(C)cc3)CC2)cc1, CCOC(=O)N1CCC(Nc2c(Nc3ccc(C)c(C)c3)c(=O)c2=O)CC1, O=c1c(O[C@@H]2O[C@H](CO)[C@@H](O)[C@H](O)[C@H]2O)c(-c2ccc(O)cc2)oc2cc(O)cc(O)c12, CCc1nc2oc3ccccc3c(=O)c2cc1C(=O)OC, COC(=O)c1cccc(S(=O)(=O)N(Cc2ccco2)Cc2cc3ccc(OC)cc3[nH]c2=O)c1, CCOC(=O)c1oc2c(O)c(O)ccc2c(=O)c1-c1nncn1-c1ccccc1, O=C(Cc1ccc(Cl)cc1)Nc1ccc2oc(-c3ccccc3)nc2c1, c1ccc(CC2CCN(c3nc4ccccc4n4nnnc34)CC2)cc1, NCCNCCN
